# Measurements: ChEMBL document CHEMBL1201862, “PubChem BioAssay data set” (2004)
#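 Five concentrations, 48 hours, 96-well plates. GI50 = concentration required for 50% inhibition of growth.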 The source made the active and inactive calls. Cut-off read from the data, not from the text of the source: active = GI50 up to about 1.1 µM and inactive = higher.
# Test system: NCI-H322M
# Experiment: inhibition of tumour cell growth, NCI panel, 48 h
row,SMILES,GI50
1,c1ccc2cc(-c3cc(-c4cc(-c5ccc6ccccc6c5)on4)no3)ccc2c1,inactive: > 100 µM
2,CCSc1nc(=S)n(-c2ccccc2)c(C)c1C(C)=O,inactive: > 100 µM
3,COc1cc2c(c(OC)c1OC)-c1c(cc3c(c1OC)OCO3)CC(C)C(C)(O)C2OC(=O)c1ccccc1 (stereo not drawn),inactive: 99.5 µM
4,Oc1c(Cl)c2nccnc2c2ccccc12,inactive: > 100 µM
5,CC1(C)Cc2ccccc2C(C)(Cl)C(=O)N1 (stereo not drawn),inactive: > 10 µM
6,CC1=C(C(N)=O)C(c2ccncc2)C(C#N)C(=O)N1 (stereo not drawn),inactive: > 100 µM
7,Cc1nc2c(o1)C(=O)c1ccccc1/C2=N\c1ccccc1,inactive: 15.9 µM
8,O=C(/C=C/c1ccc2c(c1)OCO2)c1ccc(O)cc1,inactive: 16.5 µM
9,CCOC(=O)C(=O)Nc1c(C(C)C)cccc1C(C)C,inactive: > 100 µM
10,CC(Oc1ccc(Cl)cc1Cl)C(=O)NN1C(=O)CC(=O)N(c2ccccc2)C1=S (stereo not drawn),inactive: 54.5 µM
11,CC(C)(C)OC(=O)N1CC(CCl)c2ccc(O)cc21 (stereo not drawn),inactive: 2.36 µM
12,C#CC(O)/C=C/CCCCCCC#CC/C=C\CC#CCCCCCCCCC(O)C#C (stereo not drawn),inactive: 14.5 µM
13,CCOC(=O)C1=C(O)C(=O)c2cc(OC)ccc2C1=O,inactive: 41.1 µM
14,COc1c2cc(C(C)(C)C)cc1CSCc1cc(C(C)(C)C)cc(c1OC)CCCCC2,inactive: > 50 µM
15,Cn1c(=O)c2nc3sc4ccccc4c(=N)n3c2n(C)c1=O,inactive: > 100 µM
16,Nc1ccc2ccc(N3CCNCC3)nc2n1,inactive: 28.4 µM
17,CC(=O)Nc1n[n+]([O-])c2cc(C)ccc2[n+]1[O-],inactive: 11 µM
18,COC(=O)N/N=C(\C)C(CN1CCOCC1)C(c1ccccc1)c1cc2ccccc2oc1=O (stereo not drawn),inactive: > 100 µM
19,O=C1CCCCC1C1(O)C(=O)Nc2cc(F)ccc21 (stereo not drawn),inactive: > 100 µM
20,CC(C)[Si](Oc1ccc(CC2N(C(=O)c3ccc([N+](=O)[O-])cc3)C(CCc3ccccc3)CC2(C)C=O)cc1)(C(C)C)C(C)C (stereo not drawn),inactive: > 100 µM
21,O=C(/C=C/c1cccs1)c1cccc(C(=O)/C=C/c2cccs2)n1,inactive: > 100 µM
22,NC1=NN(c2ccccc2)C(=O)C1C(=O)CCC(=O)Nc1cccc(Cl)c1 (stereo not drawn),inactive: > 100 µM
23,COc1cc(C(=O)OC2CC(C)=CC[C@@]3(C)CC[C@](O)(C(C)C)C23)ccc1O (stereo partly drawn),inactive: 15.3 µM
24,CCCCCCOc1ccc(C(=O)NO)cc1,inactive: 16 µM

row,SMILES,GI50
1,O=C(CC(=O)N1N=C(N(c2ccccc2)c2ccccc2)CC1c1ccccc1)Nc1ccccc1 (stereo not drawn),inactive: > 100 µM
2,Cn1cc(NC(=O)c2cc(NC(=O)CCCCCCC(=O)Nc3cc(C(=O)Nc4cc(C(=O)NCCC(=N)N)n(C)c4)n(C)c3)cn2C)cc1C(=O)NCCC(=N)N,inactive: 39.4 µM
3,c1ccc2c(c1)cc(C1NCCc3nc[nH]c31)c1ccccc12 (stereo not drawn),inactive: 61.1 µM
4,CCOC(=O)N1CCN(Cc2cc(=O)n3ccc(C)cc3n2)CC1,inactive: > 100 µM
5,O=C(Cc1nc2c3c(ccc2nc1O)C(=O)c1ccccc1C3=O)C(=O)Nc1ccccc1[N+](=O)[O-],inactive: 90.4 µM
6,O=c1c2cc(I)ccc2nc(Sc2ccc([N+](=O)[O-])cc2[N+](=O)[O-])n1Cc1ccccc1,inactive: 10.8 µM
7,NC(=O)C(=Cn1c(=S)[nH]c2ccc([N+](=O)[O-])cc21)C(N)=O,inactive: > 100 µM
8,CCOC(=O)c1nc2cc(F)c(F)cc2nc1NCc1cc(OC)c(OC)c(OC)c1,inactive: > 100 µM
9,O=C1CSC2(CC(/C=C/C=C/c3ccccc3)=NN2c2cccc(S(=O)(=O)O)c2)N1c1nc2ccccc2s1 (stereo not drawn),inactive: 83 µM
10,C=CCN(N=O)C(=O)NCCCC(NC(C)=O)C(=O)NCc1ccccc1 (stereo not drawn),inactive: > 100 µM
11,CCOC(=O)Nc1cc2nnc(-c3ccccc3)nc2c(N)n1,inactive: 20.4 µM
12,Clc1nc2n(c1/C=C/c1cccs1)CCS2,inactive: 45.8 µM
13,CCOC(=O)C(=O)C(CCC(=O)c1ccc2ccccc2c1O)C(=O)OCC (stereo not drawn),inactive: > 100 µM
14,Cc1cc2c(c(C(N)=O)c1C)-c1cccc(F)c1C2=O,inactive: > 100 µM
15,COC(c1ccc(C(C)(C)C)cc1)(c1ccc(C(C)(C)C)cc1)c1ccc(C(C)(C)C)cc1,inactive: > 100 µM
16,CS(=O)(=O)OCCCNCCCOS(C)(=O)=O,inactive: 2120 µM
17,CCOC(=O)/C=C(\C)c1ccc(Cl)cc1,inactive: > 100 µM
18,O=C(c1ccco1)N(Cc1cccnc1)C(=S)N(Cc1cccnc1)C(=O)c1ccco1,inactive: 18.6 µM
19,COc1cc(C(=O)Oc2ccc3c(c2)OCO3)cc(OC)c1OC,inactive: > 100 µM
20,COc1ccc2oc(C(=O)O)c3c2c1CCC3,inactive: > 100 µM
21,COc1ccc(N2C(=O)[C@@H]3[C@@H]4CC(C)CC[C@@H]4c4c([nH]c5ccccc45)[C@@H]3C2=O)cc1 (stereo partly drawn),inactive: 16.9 µM
22,N=c1oc2ccc([N+](=O)[O-])cc2cc1C(=O)Nc1ccccn1,inactive: 85.9 µM
23,CC(=O)NC1(C)C(C)C2CC1C(C)C2(C)C (stereo not drawn),inactive: > 100 µM
24,Cc1cc(-c2ccccc2)nc(Nc2nc3ccccc3o2)n1,inactive: > 100 µM

row,SMILES,GI50
1,CCC1C(C#N)=C(O)NC(O)=C1C#N,inactive: > 100 µM
2,COc1ccc(C2SC(=N)Nc3c2c(C)nn3C(=O)c2ccccc2O)cc1OC (stereo not drawn),inactive: > 10 µM
3,C=C(CC[C@@H](C)[C@H]1CC[C@H]2[C@@H]3C[C@@H](O)[C@H]4C[C@@H](O)CC[C@]4(CO)[C@H]3CC[C@]12C)C(C)C,inactive: 5.89 µM
4,O=C1C=C(NCCOCCO)C(=O)c2c(O)ccc(O)c21,inactive: 26.3 µM
5,N#CC1(CCCCl)CCCCC1,inactive: > 100 µM
6,CC(C)OP(=O)(OC(C)C)c1nn(-c2ccc([N+](=O)[O-])cc2)c(=N)s1,inactive: > 100 µM
7,CCCCCc1c(Cl)nc(Cl)nc1Cl,inactive: 16.1 µM
8,CC/N=C(/C#N)NCC,inactive: > 100 µM
9,CC(=O)C1=C(C)N(c2ccccc2)C2(O)C3=C(C(=O)c4ccccc4C3=O)C(O)=CC12Cl (stereo not drawn),inactive: 7.38 µM
10,CC(=O)O[C@H]1CC[C@@]2(C)C(=CC[C@H]3[C@@H]4C/C(=C\c5ccc(N(C)C)cc5)[C@H](OC(C)=O)[C@@]4(C)CC[C@@H]32)C1,inactive: 18.7 µM
11,O=C(N/C(=C\c1ccc([N+](=O)[O-])cc1)c1nc2c(O)nc(S)nc2[nH]1)c1ccccc1,inactive: > 100 µM
12,COc1c(-c2ccc(F)cc2)oc2cc(O)cc(O)c2c1=O,inactive: 28.4 µM
13,COC12OC3CC4(C)C(=CC3OC(OC(C)C1O)C2O)CCC1C4CCC2(C)C(c3ccc(=O)oc3)CCC12O (stereo not drawn),active: < 0.001 µM
14,Cc1cnc2c(C)ccc([N+](=O)[O-])c2c1NCCCN(C)C,inactive: > 100 µM
15,COc1ccc(CCn2cncn2)cc1,inactive: > 100 µM
16,O=c1c2ccc(Br)cc2nc(-c2ccccc2)n1NC1OC(CO)C(O)C(O)C1O (stereo not drawn),inactive: > 100 µM
17,COCN1C(=O)[C@@H]2CCCN2C(=O)c2cc([N+](=O)[O-])ccc21,inactive: > 100 µM
18,Cc1c2ccccc2c(/C=N/NC(=O)CSCC(=O)N/N=C/c2c3ccccc3c(C)c3ccccc23)c2ccccc12,inactive: 38.5 µM
19,Cn1c(=O)c(C(=O)NC23CC4CC(CC(C4)C2)C3)c(O)c2ccccc21,inactive: 25.2 µM
20,O=C1/C(=C/c2ccc(Cl)cc2)N=C(c2ccccc2)N1C1Nc2cc3c(cc2S1)NC(N1C(=O)/C(=C/c2ccc(Cl)cc2)N=C1c1ccccc1)S3 (stereo not drawn),inactive: > 100 µM
21,COc1ccc(CCNC(=O)Cc2ccccc2CO)cc1OC,inactive: > 100 µM
22,NC(=S)NN=C1Cc2ccccc2C1,inactive: > 100 µM
23,O=C1C2=Nc3ccccc3C(O)N2c2ccccc21 (stereo not drawn),inactive: 21 µM
24,O=C(Nc1c(Cl)cc([N+](=O)[O-])cc1Cl)C(=O)C(C(=O)c1ccncc1)C1OC(=O)c2ccccc21 (stereo not drawn),inactive: > 100 µM

row,SMILES,GI50
1,CN1c2ccccc2S(=O)(=O)n2c(COc3ccccc3)nnc21,inactive: > 100 µM
2,Cc1ccc(SCC(=O)C2=C(O)CCCC2=O)cc1,inactive: > 100 µM
3,Cn1nc2ccc3nccc(N(CCO)CCO)c3c2n1,inactive: > 100 µM
4,O=S1(=O)OCc2ccccc21,inactive: > 100 µM
5,CC(=O)OC(C)(C)C[N+](=O)[O-],inactive: > 100 µM
6,CC1(C)COC(c2cccnc2/C=N/O)=N1,inactive: > 100 µM
7,C#CCC[C@@H]1O[C@@]1(C)CC/C=C(\C)CC/C=C/C=O,inactive: > 100 µM
8,CN(CCCN=C=S)CCCN1c2ccccc2CCc2ccccc21,inactive: 1.71 µM
9,CC1(C)C(=S)C(C)(C)C1=S,inactive: > 100 µM
10,Cc1ccc(N/C(=C(/C(Cl)=C(Cl)Cl)[N+](=O)[O-])n2nnc3ccccc32)cc1,inactive: 19.5 µM
11,c1ccc(C2N=C(c3ccccn3)C(c3ccccn3)=NC2c2ccccc2)cc1 (stereo not drawn),inactive: > 100 µM
12,CCOC1CC(C)N(C(=O)c2ccccc2)O1 (stereo not drawn),inactive: > 100 µM
13,Cc1ccc(C2=C(c3ccccc3)C(Br)(c3ccc(C)cc3)C(c3ccccc3)=C2c2ccc(C)cc2)cc1,inactive: > 100 µM
14,O=C(CCn1[nH]c(=O)c(Cl)c(Cl)c1=O)NNC(=O)C[n+]1ccccc1,inactive: > 100 µM
15,N#C[BH2-][n+]1ccc(C(=O)NNCc2ccccc2)cc1,inactive: 48.6 µM
16,CC(=O)Nc1ccc(-c2nc3cc(Cl)ccc3o2)cc1,inactive: > 50 µM
17,C=C(C(=O)O[C@H]1C/C(C)=C/CC/C(CO)=C/[C@H]2C(=O)OC(=C)[C@H]12)C(O)CO (stereo partly drawn),inactive: 18.4 µM
18,CCC(=O)O[C@@H]1C2C(OC(C)=O)C34COC(C)([C@@H]3C3C(C[C@]3(C)OC(C)=O)[C@@H](OC(=O)c3ccccc3)C4=O)[C@H](OC(C)=O)[C@@]2(OC(C)=O)C[C@@H]1C (stereo partly drawn),inactive: > 100 µM
19,COc1ccc(-c2nc3c(nc2-c2ccc(OC)cc2)N(C)S(=O)(=O)N=C3N)cc1,inactive: 34.9 µM
20,CC(C)C(C/C=C1\CC(CO)(COC(=O)C2CCCCC2)OC1=O)C(C)C (stereo not drawn),inactive: 15.7 µM
21,COc1ccc(/C=C/c2cc(O)cc(OC)c2)cc1,inactive: 99.5 µM
